Results on 8 molecules are retold here after patent US20230235090A1 (HARBOUR BIOMED US, published 2023).

Substitutions are numbered along the chain they refer to. Names and notes keep the numbering of the source.

The target of one assay is T1, human 4-1BB (human, UniProt Q07011 24-255).
T1 construct: whole, on cells; also called CD137; TNFRSF9
Description: FACS, CHO-K1/h4-1BB cells [D]. In general terms: Flow cytometry measures light scatter and fluorescence of single cells or particles in a stream.

The target of assay [1] is T2, cynomolgus monkey 4-1BB (cynomolgus monkey).
T2 construct: whole, on cells; also called CHO-K1-cyno 4-1BB; CHO-K1/cyno4-1BB
Kind of assay: FACS, CHO-K1/cyno 4-1BB cells [B].

A further assay concerns the target T3, human B7-H4 (human, UniProt Q7Z7D3 25-282).
T3 construct: whole, on cells; also called VTCN1; SK-BR-3 cell line highly expressing B7-H4
T3 sequence (looked up): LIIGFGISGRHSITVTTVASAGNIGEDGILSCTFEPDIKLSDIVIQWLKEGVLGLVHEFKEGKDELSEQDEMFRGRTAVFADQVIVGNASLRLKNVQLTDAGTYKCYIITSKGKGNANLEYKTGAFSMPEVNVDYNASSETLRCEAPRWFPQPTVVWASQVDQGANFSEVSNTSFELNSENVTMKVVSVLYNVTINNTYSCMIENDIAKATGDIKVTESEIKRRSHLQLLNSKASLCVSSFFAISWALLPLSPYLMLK
Description: FACS, SK-BR-3 cells [A].

Assay [2] addresses T2, cynomolgus monkey 4-1BB. Kind of assay: FACS, CHO-K1/cyno 4-1BB cells [A].

Chain of human 4-1BB (Q07011 24-255): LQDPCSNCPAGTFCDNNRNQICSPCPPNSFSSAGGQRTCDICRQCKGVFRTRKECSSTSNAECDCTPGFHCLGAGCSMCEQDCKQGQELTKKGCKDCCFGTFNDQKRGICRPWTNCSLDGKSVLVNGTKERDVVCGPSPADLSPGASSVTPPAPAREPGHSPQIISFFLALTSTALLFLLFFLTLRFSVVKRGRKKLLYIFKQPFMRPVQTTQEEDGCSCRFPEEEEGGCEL

B1: PR003334 (bispecific antibody, human IgG1, kappa)
light: EIVMTQSPATLSVSPGERATLSCRASQSISSNLGWYQQKPGQAPRLLIYGASTRATGIPARFSGSGSGTEFTLTISSLQSEDFAVYYCQQYQSWPPLTFGGGTKVEIKRTVAAPSVFIFPPSDEQLKSGTASVVCLLNNFYPREAKVQWKVDNALQSGNSQESVTEQDSKDSTYSLSSTLTLSKADYEKHKVYACEVTHQGLSSPVTKSFNRGEC
heavy: QVQLVESGGGVVQPGRSLRLSCAASGFTFRSFGMHWVRQAPGKGLEWVAVISYDASNEYYADSVKGRFIISRDNSKDTLYLQMNSLRAGDTAVYYCAKGGGLRWYFAYWGQGTLVTVSSASTKGPSVFPLAPSSKSTSGGTAALGCLVKDYFPEPVTVSWNSGALTSGVHTFPAVLQSSGLYSLSSVVTVPSSSLGTQTYICNVNHKPSNTKVDKKV[letters of human IgG1 Fc with changes not shown]EPKSSDKTHTPPPPPRTEVQLLESGGGLVQLGGSLRLSCAASGFTFSRYAMTWVRQAPEKGLEWVSSISGSGDDTYYGDSVKGRFTISRDNSQNTVYLQMNSLRAEDTAVYFCAKEKAGTTGDYYYNVDVWGQGTTVTVSS
notes: IgG-VH tetravalent symmetric; PR002408 IgG x PR001758 VH; linker H1_15-RT; IgG1 (L234A, L235A); also called PR0003334
The term EC50 denotes the midpoint of the concentration-response curve. With B1, in the assay with human 4-1BB, a half-maximal effect (EC50) was put at 0.483 nM and the “Maximum MFI” value was 163000 MFI. In the assay with cynomolgus monkey 4-1BB [1], the 50% effective concentration (EC50) was found to be 0.658 nM and the “Maximum MFI” value amounted to 22600 MFI.

B2: PR002790 (bispecific antibody, human IgG1, kappa, L234A L235A)
light: B1 light with Q92N
heavy: QVQLVESGGGVVQPGRSLRLSCAASGFTFRSFGMHWVRQAPGKGLEWVAVISYDGSNEYYADSVKGRFIISRDNSKDTLYLQMNSLRAGDTAVYYCAKGGGLRWYFAYWGQGTLVTVSSASTKGPSVFPLAPSSKSTSGGTAALGCLVKDYFPEPVTVSWNSGALTSGVHTFPAVLQSSGLYSLSSVVTVPSSSLGTQTYICNVNHKPSNTKVDKKVEPKSCDKTHTCPPCPAPEAAGGPSVFLFPPKPKDTLMISRTPEVTCVVVDVSHEDPEVKFNWYVDGVEVHNAKTKPREEQYNSTYRVVSVLTVLHQDWLNGKEYKCKVSNKALGAPIEKTISKAKGQPREPQVYTLPPSREEMTKNQVSLTCLVKGFYPSDIAVEWESNGQPENNYKTTPPVLDSDGSFFLYSKLTVDKSRWQQGNVFSCSVMHEALHNHYTQKSLSLSPGEPKSSDKTHTPPPPPRTEVQLLESGGGLVQLGGSLRLSCAASGFTFSRYAMTWVRQAPEKGLEWVSSISGSGDDTYYGDSVKGRFTISRDNSQNTVYLQMNSLRAEDTAVYFCAKEKAGTTGDYYYNVDVWGQGTTVTVSS
notes: IgG-VH tetravalent symmetric; PR001476 IgG x PR001758 VH; IgG1 (L234A, L235A, P329G)
In the case of B2, in the assay with human B7-H4, the response was half-maximal at 0.717 nM (EC50) and the “Maximum MFI” value was found to be 54600 MFI.

B3: PR002802 (bispecific antibody, human IgG1, kappa, L234A L235A)
light: B1 light with Q92N
heavy: QVQLVESGGGVVQPGRSLRLSCAASGFTFRSFGMHWVRQAPGKGLEWVAVISYDGSNEYYADSVKGRFIISRDNSKDTLYLQMNSLRAGDTAVYYCAKGGGLRWYFAYWGQGTLVTVSSASTKGPSVFPLAPSSKSTSGGTAALGCLVKDYFPEPVTVSWNSGALTSGVHTFPAVLQSSGLYSLSSVVTVPSSSLGTQTYICNVNHKPSNTKVDKKVEPKSCDKTHTCPPCPAPEAAGGPSVFLFPPKPKDTLMISRTPEVTCVVVDVSHEDPEVKFNWYVDGVEVHNAKTKPREEQYNSTYRVVSVLTVLHQDWLNGKEYKCKVSNKALGAPIEKTISKAKGQPREPQVYTLPPSREEMTKNQVSLTCLVKGFYPSDIAVEWESNGQPENNYKTTPPVLDSDGSFFLYSKLTVDKSRWQQGNVFSCSVMHEALHNHYTQKSLSLSPGEPKSSDKTHTPPPPPRTEVQLLESGGGLVQPGGSLRLSCTASGFTFSNYAMSWVRQAPEKGLEWVSSISGSGGSTFYADSVKGRFTISRDNSKNTLYLQMNSLRAEDTAVYFCAKEGSSETDDHYYNVDVWGQGTTVTVSS
notes: IgG-VH tetravalent symmetric; PR001476 IgG x PR001830 VH; IgG1 (L234A, L235A, P329G)
For the molecule B3, in the assay with human B7-H4, the 50% effective concentration (EC50) is 0.499 nM and the “Maximum MFI” value was determined as 49900 MFI. For the same molecule, in the assay with cynomolgus monkey 4-1BB [2], the response was half-maximal at 3.34 nM (EC50) and the “Maximum MFI” value is 31300 MFI.

B4: PR003335 (bispecific antibody, human IgG1, kappa)
light: B1 light
heavy: QVQLVESGGGVVQPGRSLRLSCAASGFTFRSFGMHWVRQAPGKGLEWVAVISYDASNEYYADSVKGRFIISRDNSKDTLYLQMNSLRAGDTAVYYCAKGGGLRWYFAYWGQGTLVTVSSASTKGPSVFPLAPSSKSTSGGTAALGCLVKDYFPEPVTVSWNSGALTSGVHTFPAVLQSSGLYSLSSVVTVPSSSLGTQTYICNVNHKPSNTKVDKKV[letters of human IgG1 Fc with changes not shown]EPKSSDKTHTPPPPPRTEVQLVESGGGVVQPGGSLRLSCAASGFTFSNYAMTWVRQAPEKGLEWVSSISGSGVSTYYADSVKGRFTISRDNSKNTLYLQMTRLTAEDTAVYFCAKEGSSETDDHYYNVDVWGQGTTVTVSS
notes: IgG-VH tetravalent symmetric; PR002408 IgG x PR001760 VH; linker H1_15-RT; IgG1 (L234A, L235A); also called PR0003335
Regarding B4, the EC50 with human 4-1BB stood at 0.74 nM; with cynomolgus monkey 4-1BB [1], 0.797 nM. The “Maximum MFI” value is 173000 MFI in the assay with human 4-1BB and 24400 MFI in the assay with cynomolgus monkey 4-1BB [1].

B5: PR002804 (bispecific antibody, human IgG1, kappa, L234A L235A)
light: B1 light with Q92N
heavy: B3 heavy with T488A, N496S, S566A, S567T, H572Y, Y573H, Y574F, V576T
notes: IgG-VH tetravalent symmetric; PR001476 IgG x PR001833 VH; IgG1 (L234A, L235A, P329G)
With B5, the concentration for a half-maximal effect (EC50) in the assay with human B7-H4 was found to be 0.615 nM; with cynomolgus monkey 4-1BB [2], 0.705 nM. Also, the “Maximum MFI” value turned out to be 53300 MFI with human B7-H4 and 28200 MFI with cynomolgus monkey 4-1BB [2].

B6: PR002791 (bispecific antibody, human IgG1, kappa, L234A L235A)
light: B1 light with Q92N
heavy: B3 heavy with L470V, L476V, T488A, S500T, G521V, F524Y, N549T, S550R, R552T
notes: IgG-VH tetravalent symmetric; PR001476 IgG x PR001760 VH; IgG1 (L234A, L235A, P329G)
Consider B6, for which the EC50 came out at 0.554 nM in the assay with human B7-H4 and 0.844 nM with cynomolgus monkey 4-1BB [2]. For the same molecule, the figures for the “Maximum MFI” value in the assay with human B7-H4 and in the assay with cynomolgus monkey 4-1BB [2] were 53400 MFI and 23900 MFI, respectively.

B7: PR003336 (bispecific antibody, human IgG1, kappa)
light: B1 light
heavy: QVQLVESGGGVVQPGRSLRLSCAASGFTFRSFGMHWVRQAPGKGLEWVAVISYDASNEYYADSVKGRFIISRDNSKDTLYLQMNSLRAGDTAVYYCAKGGGLRWYFAYWGQGTLVTVSSASTKGPSVFPLAPSSKSTSGGTAALGCLVKDYFPEPVTVSWNSGALTSGVHTFPAVLQSSGLYSLSSVVTVPSSSLGTQTYICNVNHKPSNTKVDKKV[letters of human IgG1 Fc with changes not shown]EPKSSDKTHTPPPPPRTEVQLLESGGGLVQPGGSLRLSCTASGFTFSNYAMSWVRQAPEKGLEWVSSISGSGGSTFYADSVKGRFTISRDNSKNTLYLQMNSLRAEDTAVYFCAKEGSSETDDHYYNVDVWGQGTTVTVSS
notes: IgG-VH tetravalent symmetric; PR002408 IgG x PR001830 VH; IgG1 (L234A, L235A)
For the molecule B7, the concentration giving a half-maximal response (EC50) came to 0.5 nM in the assay with human 4-1BB and 0.443 nM with cynomolgus monkey 4-1BB [1]. Further, the “Maximum MFI” value with human 4-1BB is 166000 MFI; with cynomolgus monkey 4-1BB [1], 22100 MFI.

B8: PR003337 (bispecific antibody, human IgG1, kappa)
light: B1 light
heavy: QVQLVESGGGVVQPGRSLRLSCAASGFTFRSFGMHWVRQAPGKGLEWVAVISYDASNEYYADSVKGRFIISRDNSKDTLYLQMNSLRAGDTAVYYCAKGGGLRWYFAYWGQGTLVTVSSASTKGPSVFPLAPSSKSTSGGTAALGCLVKDYFPEPVTVSWNSGALTSGVHTFPAVLQSSGLYSLSSVVTVPSSSLGTQTYICNVNHKPSNTKVDKKV[letters of human IgG1 Fc with changes not shown]EPKSSDKTHTPPPPPRTEVQLLESGGGLVQPGGSLRLSCAASGFTFSSYAMSWVRQAPEKGLEWVSSISGSGGSTFYADSVKGRFTISRDNSKNTLYLQMNSLRAEDTAVYFCAKEGATETDDYHFNTDVWGQGTTVTVSS
notes: IgG-VH tetravalent symmetric; PR002408 IgG x PR001833 VH; IgG1 (L234A, L235A)
In the case of B8, in the assay with human 4-1BB, a half-maximal response (EC50) required 0.722 nM and the “Maximum MFI” value came to 166000 MFI. Besides, in the assay with cynomolgus monkey 4-1BB [1], the EC50 came out at 0.631 nM and the “Maximum MFI” value turned out to be 22500 MFI.
